Test results from the supplement of paper PMC12217912.
The list shows a part of the results. Sequences were assembled here from the parent chain. Inactive controls read about 0.05.

B1: TEV protease; numbered along this chain (parent)
chain: MGESLFKGPRDYNPISSSICHLTNESDGHTTSLYGIGFGPFIITNKHLFRRNNGTLVVQSLHGVFKVKDTTTLQQHLVDGRDMIIIRMPKDFPPFPQKLKFREPQREERICLVTTNFQTKSMSSMVSDTSCTFPSGDGIFWKHWIQTKDGQCGSPLVSTRDGFIVGIHSASNFTNTNNYFTSVPKNFMELLTNQEAQQWVSGWRLNADSVLWGGHKVFMVKPEEPFQPVKEATQL

Variants of: B1
Assay: raw area under fraction-flipped curve 0-4 h after induction (AUC4h, not background-subtracted), DNA-recorder readout of cleavage of the substrate (dimensionless); higher = more cleavage of the substrate by the protease variant
Settings: temperature: 34 °C; time window: 0-4 h after rhamnose induction
Description: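 In vivo DNA recorder in E. coli TOP10(DE3) ΔrhaA at 34 °C. Each TEVp single-site mutant (parent TEVp 0) is paired with a single-site variant of the 7-mer TEVs (canonical ENLYFQ|S). The substrate sits between flexible linkers in a Bxb1-sfGFP-TEVs-SsrA fusion, so cleavage stabilises Bxb1 and speeds flipping of a recombination array, read by NGS. The value is the raw area under the fraction-flipped curve over 0-4 h after rhamnose induction (AUC4h), with ≥20 reads per time point. It is not background-subtracted; inactive controls average about 0.047.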
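Further: Bxb1 expression induced with 0.2% (w/v) L-rhamnose at OD600 near 0.5, cultures sampled hourly, flipped fraction per protease–substrate barcode pair counted by paired-end Illumina sequencing.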

Row | Variant | area with substrate DNLYFQS | area with substrate GNLYFQS | area with substrate HNLYFQS | area with substrate INLYFQS | area with substrate KNLYFQS | area with substrate LNLYFQS | area with substrate NNLYFQS | area with substrate SNLYFQS | area with substrate TNLYFQS | area with substrate WNLYFQS | area with substrate PNLYFQS | area with substrate YNLYFQS | area with substrate MNLYFQS | area with substrate VNLYFQS | area with substrate FNLYFQS | area with substrate QNLYFQS | area with substrate RNLYFQS | area with substrate CNLYFQS
1 | I15V | 0.0659 | 0.0487 | 0.0619 | 0.0646 | 0.0929 | 0.065 | 0.0595 | 0.0365 | 0.0739 | 0.0735 |  |  |  |  |  |  |  | 
2 | D27Y | 0.0653 | 0.0637 | 0.0501 | 0.0543 | 0.0649 |  | 0.056 | 0.0589 | 0.0597 | 0.0578 | 0.0653 | 0.143 |  |  |  |  |  | 
3 | D27R | 0.0712 | 0.0632 | 0.048 |  |  | 0.0384 |  | 0.0456 |  | 0.0574 | 0.0425 | 0.0647 |  |  |  |  |  | 
4 | T55H | 0.0675 |  | 0.0557 | 0.0756 |  |  |  |  | 0.0511 | 0.0642 |  | 0.0739 | 0.0404 | 0.0834 |  |  |  | 
5 | T55K | 0.0859 | 0.0536 | 0.0711 | 0.0618 | 0.0713 | 0.0819 | 0.0621 | 0.0567 | 0.0744 | 0.0512 | 0.0713 | 0.0644 | 0.0649 |  | 0.0662 | 0.0598 |  | 
6 | S4F | 0.0967 |  |  |  | 0.0924 | 0.0687 |  |  | 0.0779 | 0.0666 | 0.0639 | 0.0623 | 0.0742 | 0.0702 | 0.0716 |  | 0.0731 | 
7 | S16P | 0.0777 | 0.115 | 0.0596 | 0.0608 | 0.0643 |  |  |  |  | 0.063 | 0.0594 | 0.0557 | 0.0453 | 0.0712 | 0.0667 |  | 0.0564 | 
8 | K46D | 0.0722 | 0.0591 | 0.0533 |  | 0.0641 | 0.0611 | 0.0307 | 0.0554 | 0.0618 | 0.0558 | 0.0717 | 0.0611 | 0.047 | 0.062 | 0.0408 | 0.0491 |  | 
9 | L22F | 0.0652 | 0.0673 | 0.0571 |  |  | 0.0629 | 0.053 |  | 0.0618 | 0.0568 | 0.0491 | 0.0554 | 0.0716 | 0.0595 |  |  | 0.0893 | 
10 | C20Y | 0.0459 |  | 0.0433 |  | 0.0619 | 0.0634 | 0.0427 |  | 0.0616 | 0.06 | 0.0504 | 0.0566 |  |  | 0.0527 |  | 0.0493 | 
11 | C20K | 0.0556 | 0.0763 | 0.0377 | 0.055 | 0.0402 | 0.0479 | 0.0451 | 0.047 | 0.0531 | 0.0502 |  | 0.0581 | 0.0455 |  |  |  |  | 
12 | F49E | 0.0593 | 0.052 | 0.0504 | 0.06 | 0.0463 | 0.0336 | 0.075 | 0.0488 | 0.048 | 0.0539 | 0.0522 | 0.0379 | 0.0661 | 0.0513 | 0.0416 |  | 0.0614 | 
13 | L33E | 0.0648 | 0.0715 | 0.0548 | 0.0511 | 0.0401 | 0.079 |  | 0.0571 |  | 0.0555 | 0.0619 | 0.0483 |  | 0.0568 |  |  |  | 
14 | E223G |  |  | 0.0631 |  |  |  |  |  |  |  |  |  |  |  |  |  |  | 0.0417
15 | T31L | 0.068 | 0.0583 |  |  | 0.0728 | 0.0728 | 0.0592 | 0.0686 | 0.0667 | 0.0651 | 0.0651 |  | 0.0723 | 0.0524 | 0.0786 | 0.0744 |  | 
